Screen size: about 48,000 compounds; about 450 (0.94%) were called active. Roughly 19% stayed inconclusive and do not appear here. Calls follow the shape of the dose curve; as a rule, active = well fitted inhibition curve with a large enough effect; inconclusive = small, poorly fitted or top-dose-only effect; inactive = no such curve, though single readings can be large or run the other way. This is one part of the list.

The source of these data is PubChem BioAssay AID1508623 (National Center for Advancing Translational Sciences (NCATS), 2021).

This experiment is described as follows: Primary qHTS for Identification of Small Molecule Inhibitors of Huntingtin Promoter Activity. Also: nearly all actives have a fitted effect of over 50% in size. Conditions: HEK293 HTT promoter firefly luciferase reporter (activity 0% = vehicle and -100% = no light), 24 h; series mostly up to 57.5 µM; activity change, negative = inhibition: at the top concentration. Put shortly:
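HEK293 luciferase promoter-reporter cells (2,500/well) plated 24 h, then compounds added at up to 57.5 uM final for 24 h at 37 °C. Firefly luminescence by Dual-Glo, normalized to vehicle (0%) and zero RLU (-100%).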
On the technique in general: qHTS replaces the single test concentration by a dilution series.
Turning to `CCOC(=O)c1cccc(NC(=O)CCc2nc3cccnc3n2-c2ccccc2)c1`, the “activity change, negative = inhibition” value is inactive: -30.5%.

As for `CNC(=O)Oc1ccc2c(c1)[C@]1(C)CCN(C)[C@@H]1N2C`, the “activity change, negative = inhibition” value was inactive: 11.4%. In the case of `COc1ccccc1C(=O)Nc1nc2nc(C)cc(=O)n2[nH]1` it was inactive: -0.789%. The figure for `O=C(CN1C(=O)COc2ccc(S(=O)(=O)NC3CCCC3)cc21)Nc1ccc(Cl)cc1F` is inactive: -18.2%; for `O=C(O)CSCC(=O)NC1CCSC1=O` (centres undefined) it is “inactive”; for `CCOC(=O)c1c(C)[nH]c(CCC(=O)Nc2cc(Cl)ccc2OC)c1C` it is inactive: -29.8%. The figure for `Cc1nc(N2CCOCC2)c2c(C(=O)NCc3ccc(Cl)cc3)c(C)oc2n1` is inactive: 1.24%; for `CCc1ccc(NC(=O)c2nc3nc(C)cc(C(F)F)n3n2)cc1` it is inactive: 32%. For `CN(C)S(=O)(=O)N(CC(=O)Nc1ccc(C(F)(F)F)cc1)c1ccccc1`, the “activity change, negative = inhibition” value is inactive: -27.7%. In the case of `Cc1ccc(OCCSc2nc3ccc(NC(=O)c4cccs4)cc3s2)cc1` it was inactive: -17.6%; in that of `COc1cc(OC)cc(C(=O)NCCc2csc3nc(-c4ccccc4F)nn23)c1`, inactive: -7.68%; in that of `COc1cccc(CNC(=O)c2cc(-c3ccc(Cl)cc3)n[nH]2)c1`, inactive: 10.2%. In the case of `CCC(CC)c1nn2c(=O)cc(COc3ccc(NC(=O)c4cccc(C)c4)cc3)nc2s1` it was inactive: -7.14%; in that of `O=C(CCC(=O)N1CCSc2ccccc21)Nc1ccc(Cl)cc1`, inactive: -15.5%.

Regarding `CCOc1cccc(C(=O)N(Cc2ccc(C)o2)C2CCS(=O)(=O)C2)c1` (centres undefined), the “activity change, negative = inhibition” value is inactive: -13.5%.

Take `COc1ccc(CNC(=O)c2ccc3c(c2)N(Cc2cc(C)ccc2C)C(=O)CS3)cc1`: the “activity change, negative = inhibition” value was inactive: -15.7%. The figure for `COc1ccccc1CNS(=O)(=O)c1cc(Br)cc2c1N(C(=O)C1CC1)CC2` is inactive: -12.4%; for `COc1ccc(CNc2nc(-c3ccc(Cl)cc3)nn2S(=O)(=O)c2ccc(C)cc2)cc1` it is inactive: -15.6%.

For `O=c1cc(COc2ccc(Cl)cc2Cl)nc2scc(-c3ccccc3)n12`, the “activity change, negative = inhibition” value is inactive: -6.07%. In the case of `COc1ccccc1OCC(=O)N(Cc1ccco1)Cc1ccccc1F` it was inactive: -28.1%; in that of `CC(CNC(=O)c1ccc2c(c1)nc1n2CCCCC1)c1ccccc1` (centres undefined), inactive: 9.51%.

Take `CCOc1ccc(CC(=O)NC2CC(=O)N(c3cccc(F)c3)C2)cc1` (centres undefined): the “activity change, negative = inhibition” value is inactive: 0.84%. On to `COc1ccccc1-c1nn2c(=O)cc(CN3CCN(C(=O)Nc4ccc(C)cc4Cl)CC3)nc2s1`, for which the “activity change, negative = inhibition” value is inactive: -4.71%. The figure for `CCOc1ccc(-n2c(=O)c3c(C)c(C)sc3n(CC(=O)C(C)(C)C)c2=O)cc1` is inactive: -8.24%; for `Cc1ccc(-n2c(=O)c3c(c4cc(C)ccc4n3C)n(CC(=O)Nc3ccc(F)cc3)c2=O)cc1` it is inactive: -20.1%; for `CC(=O)c1ccc(N2CCN(C(=O)c3cn(C)c(=O)c4c3c3ccccc3n4C)CC2)cc1` it is inactive: 19%. The figure for `COc1ccc(CNC(=O)COCc2cc(-c3ccc4c(c3)OCO4)on2)cc1` is inactive: -26%. In the case of `COc1cc(C(=O)NCC(c2ccco2)S(=O)(=O)c2cccs2)cc(OC)c1OC` (centres undefined) it was inactive: -22.9%. Consider `CCCCC(=O)Nc1nnc(S(=O)(=O)N(C)Cc2ccc(Cl)cc2)s1`, for which the “activity change, negative = inhibition” value is inactive: 6.78%. In the case of `COCCCNc1nc2c(c(=O)n(Cc3ccc(F)cc3)c(=O)n2C)n1C` it was inactive: -9.47%. In the case of `Cc1cc(C)cc(NC(=O)CCc2c(C)nc3nc(CNC(=O)c4cccc(F)c4)nn3c2C)c1` it was inactive: 16.6%. In the case of `COc1ccc(OC)c(S(=O)(=O)NCC(c2ccc(N(C)C)cc2)N2CCOCC2)c1` (centres undefined) it was inactive: -3.94%. For the molecule `O=C(NCC(c1ccco1)S(=O)(=O)c1cccs1)c1ccccc1` (centres undefined), the “activity change, negative = inhibition” value is inactive: -8.48%. The figure for `COc1ccc(N2CCN(S(=O)(=O)c3ccc(CC(C)C)cc3)CC2)cc1` is inactive: -18.6%; for `COC(=O)c1cc2oc3ccccc3c2n1Cc1ccc(C)cc1` it is inactive: -17.9%. The figure for `Cc1c(Cl)cccc1Nc1nn2c(=O)c3ccccc3nc2s1` is inactive: 12.1%. The figure for `CCOC(=O)c1cc2c(=O)n3ccccc3nc2n(Cc2ccco2)c1=NC(=O)c1ccccc1Br` is inactive: -21.6%; for `CCOc1ccc(NC(=O)Cn2c(=O)n(CCCC(=O)NCCc3ccc(Cl)cc3)c(=O)c3ccccc32)cc1` it is inactive: -14.8%.

For the molecule `Cc1ccc(Cn2c(SCC(=O)NCc3ccccc3)nc3ccsc3c2=O)cc1`, the “activity change, negative = inhibition” value is inactive: -3.61%.

For `Cc1ccccc1-c1noc(-c2ccc(NCC3CCCO3)c([N+](=O)[O-])c2)n1` (centres undefined), the “activity change, negative = inhibition” value is inactive: 16.9%. Take `Cc1oc(-c2ccccc2F)nc1CS(=O)(=O)CC(=O)N1CCN(c2ccccc2)CC1`: the “activity change, negative = inhibition” value is inactive: -21%. In the case of `COc1ccc(-c2[nH]c(-c3ccc(O)cc3)nc2-c2ccccc2)cc1` it was inactive: -20.5%; in that of `Cc1ccc([N+](=O)[O-])cc1NC(=O)CN(c1ccccc1)S(=O)(=O)N(C)C`, inactive: -15.3%.

Regarding `O=C1CCCc2cc(S(=O)(=O)N3CCCC(C(=O)NCc4ccccc4)C3)ccc2N1` (centres undefined), the “activity change, negative = inhibition” value is inactive: -31.3%. In the case of `CC(=O)c1cccc(NC(=O)c2nc(-c3ccccc3)n(-c3ccccc3)n2)c1` it was inactive: -9%. In the case of `COc1cc2c(cc1OC)n(Cc1cccc(C(F)(F)F)c1)c(=O)n1nc(-c3ccccc3)nc21` it was inactive: -14.6%; in that of `O=C(Oc1cccc2cccnc12)c1ccccc1`, inactive: -34.2%; in that of `COc1cccc(NC(=O)CCNS(=O)(=O)c2ccc3c(c2)oc(=O)n3C)c1`, inactive: -13%.

Take `CCOC(=O)[C@H](CCc1ccccc1)N[C@@H](C)C(=O)N1Cc2cc(OC)c(OC)cc2C[C@H]1C(=O)O`: the “activity change, negative = inhibition” value was inactive: 0.885%.
